# T1: BMP-9 (Homo sapiens, UniProt Q9UK05)
# T1 sequence (Q9UK05 320-429): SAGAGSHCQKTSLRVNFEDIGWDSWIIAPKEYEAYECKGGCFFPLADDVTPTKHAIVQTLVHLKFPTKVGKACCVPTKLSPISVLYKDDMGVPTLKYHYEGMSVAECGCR
# Key:
# [1] = target: T1, BMP-9; assay: Small-scale BMP-9 ELISA with CHO supernatants; format: binding; details: BMP-9 10 ng/mL
# [2] = Single-injection body weight gain in wild-type mice; format: in vivo; details: single 25 mg/kg subcutaneous injection, after 4 days, vs vehicle
# Protocol: To investigate the target engagement of exemplary ActRIIB-ECD polypeptide constructs in vivo, mice (n=6/group) were injected with given agents (25 mg/kg, subcutaneous injection), and sacrificed after 4 days to assess body weight gain.
# [3] = SEC-HPLC monomer and HMW content of purified fusion proteins; format: physicochemical; details: after Protein A purification
molecule,measurement,setting,value
"P1373: hActRIIB L33W, 19 aa linker, IgG1-DL Fc; SEQ ID 232 (protein) ETRECIYYNANWELERTNQSGLERCEGEQDKRWHCYASWRNSSGTIELVKKGCWLDDFNCYDRQECVATEENPQVYFCCCEGNFCNERFTHLPEAGGPEVTYEPPPTGGGGSGGGGSGGGGSGG[human IgG1 Fc and a few adjoining residues not spelt out]","BMP-9 binding, ELISA signal relative to P75",[1],near-undetectable binding to BMP-9
same,body weight gain,[2],statistically significant body weight gain
same,high molecular weight (HMW) content (SEC-HPLC),[3],2%
same,monomer content (SEC-HPLC),[3],98%

# From patent US20260193317A1, “COMBINATION THERAPY WITH ACTRIIB RECEPTOR VARIANTS AND GLP-1 AGONISTS” (35PHARMA Inc., priority 2023, published 2026)
